# “And” between values parts separate entries of the source, which are not always exact repeats. Identical values can stand only once. Inconclusive results, whose numbers are uncertain, are shown with a selection of clear calls. For some assays here: A potency beside an inconclusive call is a rough fit, not a confirmed value. The source made the active and inactive calls. Calls follow the shape of the dose curve; as a rule, active = well fitted curve in the direction sought with a large enough effect; inconclusive = small, poorly fitted or top-dose-only effect, or another doubt; inactive = no such curve, though single readings can be large; an effect the other way counts as inactive or inconclusive.
# Legend:
# [1] = target: Aldehyde dehydrogenase, mitochondrial (Homo sapiens) (UniProt P05091); assay: qHTS for Inhibitors of the Aldehyde Dehydrogenase Family (ALDH2) Primary screen (AID 2061308); details: ALDH2 enzyme inhibition qHTS, 1536-well; series mostly up to 56 µM; also: nearly all actives have a fitted effect of over 55% in size; also: potency is read from the fitted curve at half-maximal effect
# [2] = target: Retinaldehyde dehydrogenase 3 (Homo sapiens) (UniProt P47895); assay: qHTS for Inhibitors of the Aldehyde Dehydrogenase Family (ALDH1A3) Primary screen (AID 2061315); details: ALDH inhibition qHTS; series mostly up to 56 µM; also: potency is read from the fitted curve at half-maximal effect
# [3] = BET inhibitor-based combinations targeting novel dependencies in MECOM-rearranged (r) AML: SET-2 cell line (AID 2202231); details: SET-2 AML cells viability, CellTiter-Glo luminescence, 48 h; viability: active compounds read low, concentration not given here; also: potency is read from the fitted curve at half-maximal effect; nearly all actives have a fitted effect of over 35% in size
# Summary of the method: (§1)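 500 cells/well; 11-pt dose curve; 48 h, standard incubator; CellTiter-Glo luminescence after 15 min RT; DMSO/empty-well normalization; AUC plus Z-AUC (mean-centered within each line).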
# [4] = BET inhibitor-based combinations targeting novel dependencies in MECOM-rearranged (r) AML: OCI-AML3 cell line (AID 2202232); details: CellTiter-Glo luminescence, 48 h; Potency: OCI-AML3 viability; viability (% of control): at 46 µM (top of the series); also: nearly all actives have a fitted effect of over 35% in size; also: potency is read from the fitted curve at half-maximal effect
# Summary of the method: as §1
# [5] = BET inhibitor-based combinations targeting novel dependencies in MECOM-rearranged (r) AML: MV-4-11 cell line (AID 2202233); details: MV-4-11 AML viability, CellTiter-Glo luminescence, 48 h; series mostly up to 46 µM; also: potency is read from the fitted curve at half-maximal effect; nearly all actives have a fitted effect of over 45% in size
# Summary of the method: (§2)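 Cells were plated at 500 per well and exposed to each drug across an 11-point dose range for 48 hr at standard incubator conditions. Viability was read by CellTiter-Glo luminescence, and activity was expressed as AUC and per-cell-line Z-transformed AUC.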
# [6] = BET inhibitor-based combinations targeting novel dependencies in MECOM-rearranged (r) AML: HNT-34 cell line (AID 2202234); details: HNT-34 AML viability, CellTiter-Glo luminescence, 48 h; series mostly up to 46 µM; also: potency is read from the fitted curve at half-maximal effect; nearly all actives have a fitted effect of over 35% in size
# Summary of the method: as §2
# [7] = BET inhibitor-based combinations targeting novel dependencies in MECOM-rearranged (r) AML: AML-194 cell line (AID 2202237; also: nearly all actives have a fitted effect of over 40% in size); details: AML-194 (MECOM-r AML) viability, CellTiter-Glo, 48 h; series mostly up to 46 µM
# Summary of the method: as §1
# [8] = BET inhibitor-based combinations targeting novel dependencies in MECOM-rearranged (r) AML: UCSD-AML1 cell line (AID 2202235); details: UCSD-AML1 AML cells viability, CellTiter-Glo, 48 h; viability (% of control): at 46 µM (top of the series); also: nearly all actives have a fitted effect of over 40% in size
# Summary of the method: as §2
# [9] = BET inhibitor-based combinations targeting novel dependencies in MECOM-rearranged (r) AML: AML-191 cell line (AID 2202236; also: potency is read from the fitted curve at half-maximal effect; nearly all actives have a fitted effect of over 35% in size); details: AML-191 viability, CellTiter-Glo luminescence, 48 h; series mostly up to 46 µM
# Summary of the method: as §1
# Tags tell the direction and shape of the fitted curve.
structure (smiles),measurement,setting,value
CC1(C)C(=O)CCC2(C)C1C(O)C=C1COC(=O)C12O (centres undefined),Potency,[1],"inconclusive: 28.2 µM [inhibitor, partial curve, poor fit]"
same,Potency,[2],"inconclusive: 15.8 µM [inhibitor, partial curve, poor fit]"
CNC(=O)c1cccc2cc(Oc3ccnc4cc(OCC5(N)CC5)c(OC)cc34)ccc12,Potency,[1],inactive
same,Potency,[3],"inconclusive: 37.2 µM [inhibitor, single point]"
Cc1ccnc(NC(=S)N2CCN(c3cccc([N+](=O)[O-])c3)CC2)c1,Potency,[1],"inconclusive: 2.51 µM [inhibitor, partial curve, poor fit]"
same,Potency,[2],"inconclusive: 3.16 µM [inhibitor, partial curve]"
N#Cc1cccc(-c2c[nH]c3ncnc(N4CCOCC4)c23)c1,Potency,[1],inactive
same,Potency,[3],"inconclusive: 23.5 µM [inhibitor, partial curve, poor fit]"
same,Potency,[4],"inconclusive: 18.6 µM [inhibitor, partial curve, poor fit]"
same,Potency,[5],"inconclusive: 18.6 µM [inhibitor, partial curve, poor fit]"
same,Potency,[6],"inconclusive: 33.2 µM [inhibitor, partial curve, poor fit]"
same,Potency,[7],inactive
Cc1cc(C)nc(NC(=S)N2CCN(c3cccc(S(C)(=O)=O)c3)CC2)c1,Potency,[1],inactive
same,Potency,[2],inactive
Oc1ccc(CNc2cccc(F)c2)c2cccnc12,Potency,[1],"inconclusive: 12.6 µM [inhibitor, partial curve, poor fit]"
same,Potency,[2],"inconclusive: 10 µM [inhibitor, partial curve, poor fit]"
O=C(NN1CCCCC1)c1nn(-c2ccc(Cl)cc2Cl)c(-c2ccc(C#Cc3ccc(C(F)(F)F)cc3)s2)c1CNS(=O)(=O)N1CCCC1,Potency,[1],"inconclusive: 25.1 µM [inhibitor, single point]"
same,Potency,[2],inactive
COC1=CC(=O)O[C@@H](CCc2ccccc2)[C@@H]1O,Potency,[1],inactive
same,Potency,[2],inactive
CC(=O)NC(c1cccs1)c1cc(Cl)c2ccccc2c1O (centres undefined),Potency,[1],"inconclusive: 8.91 µM [inhibitor, partial curve, poor fit]"
same,Potency,[2],"inconclusive: 10 µM [inhibitor, partial curve, poor fit]"
C[C@H](NC(c1ccc(F)cc1)c1ccc2cccnc2c1O)c1ccccc1 (some centres undefined),Potency,[1],"inconclusive: 3.16 µM [inhibitor, single point] and inconclusive: 11.2 µM [inhibitor, partial curve, poor fit]"
same,Potency,[2],inactive
Cc1cc(C)nc(NC(=S)N2CCN(c3cc(Cl)cc(Cl)c3)CC2)c1,Potency,[1],"inconclusive: 3.55 µM [inhibitor, partial curve, poor fit]"
same,Potency,[2],"inconclusive: 2.82 µM [inhibitor, partial curve]"
Cc1cc(=O)oc2cc(SC3=NS(=O)(=O)c4ccccc43)ccc12,Potency,[1],"inconclusive: 0.794 µM [inhibitor, full curve, poor fit]"
same,Potency,[2],"inconclusive: 2.82 µM [inhibitor, full curve, poor fit]"
CCCS(=O)(=O)Nc1ccc(F)c(C(=O)c2c[nH]c3ncc(Cl)cc23)c1F,Potency,[1],inactive
same,Potency,[3],active: 16.6 µM
same,Potency,[4],inactive
same,Potency,[8],inactive
same,Potency,[9],"inconclusive: 23.5 µM [inhibitor, single point]"
CN1CCN(c2cccc(Nc3nn4c(=O)c5ccc(Br)cc5nc4s3)c2)CC1,Potency,[1],"inconclusive: 3.55 µM [inhibitor, full curve, poor fit]"
same,Potency,[2],inactive
Cc1nnc(Nc2sc3c(c2-c2nc4ccccc4s2)CCNC3)o1,Potency,[1],"inconclusive: 15.8 µM [inhibitor, partial curve, poor fit]"
same,Potency,[2],"inconclusive: 25.1 µM [inhibitor, partial curve, poor fit]"
COc1ccnc(NC(=S)N2CCN(c3cc(Cl)cc(Cl)c3)CC2)c1,Potency,[1],"inconclusive: 3.16 µM [inhibitor, partial curve, poor fit]"
same,Potency,[2],"inconclusive: 3.55 µM [inhibitor, single point]"
COC(=O)c1ccc(N2CCN(S(=O)(=O)c3ccc4c(c3)CC(=O)N4)CC2)cc1,Potency,[1],inactive
same,Potency,[2],inactive
CCC/C=C/C=C/C1CC(O)C(O)C(=O)C1CO (centres undefined),Potency,[1],"inconclusive: 35.5 µM [inhibitor, single point]"
same,Potency,[2],inactive
CCOc1cc(C(C)(C)C)ccc1C1=N[C@@](C)(c2ccc(Cl)cc2)[C@@](C)(c2ccc(Cl)cc2)N1C(=O)N1CCN(CC(=O)N2CCOCC2)CC1,Potency,[3],"inconclusive: 20.5 µM [inhibitor, single point]"
